Results as given in PubChem BioAssay AID686979 (National Center for Advancing Translational Sciences (NCATS), 2013).
Hit rate of the full screen: of about 420,000 compounds, about 50,000 (12%) were called active. About 26% were inconclusive and are not listed. Calls follow the shape of the dose curve; as a rule, active = well fitted inhibition curve with a large enough effect; inconclusive = small, poorly fitted or top-dose-only effect; inactive = flat fitted curve, though single readings scatter. The entries are a selection whose mix differs from that of the whole data set. The source holds several records for some structures; these can differ, active in one and inactive in another.

Test: qHTS for Inhibitors of human tyrosyl-DNA phosphodiesterase 1 (TDP1): qHTS in cells in presence of CPT; also: nearly all actives have a fitted effect of over 55% in size
Details: chicken DT40 Tdp1-/-;hTDP1 cells + 20 nM CPT, ATP luminescence, 48 h; series mostly up to 46.2 µM; activity change, negative = growth inhibition: at the top concentration
Method in brief: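 Chicken DT40 Tdp1-/- cells stably complemented with human TDP1 were seeded at 400 cells/well in medium containing 20 nM camptothecin, exposed to pin-transferred compounds, and grown at 37 °C for at least 48 hr. Viability was read as ATP luminescence.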
% is scaled to controls: 0 for no effect and ±100 for the full control effect; potency is read from the fitted curve at half-maximal effect.

SMILES	activity change, negative = growth inhibition	Potency
O=C(C1=C[C@@H](c2ccc3c(c2)OCO3)C[C@@H](OCCCCO)O1)N1CCOCC1	inactive: -5.02%	–
C#Cc1ccc([C@@H]2C=C(C(=O)NC3CC3)O[C@H](OCC)[C@H]2CCCO)cc1	inactive: -18.8%	–
O=C1C(Cc2ccccc2)Nc2ncnc(N3CCCCC3)c2N1Cc1ccc(Br)cc1 (centres undefined)	inactive: -27.1%	–
Cc1ccc(-n2ncc3c(Nc4cccc(C(=O)O)c4)ncnc32)cc1	inactive: -30%	–
COC(=O)C[C@H]1c2cc(F)ccc2S(=O)(=O)N1Cc1ccccc1OC	inactive: -4.18%	–
CCCCCn1c(=O)[nH]c2cc(C(=O)N3CCN(c4cccc(C(F)(F)F)c4)CC3)ccc2c1=O	–	active: 10.3 µM
Nc1cccc2c1C(=O)N(C(=O)c1ccco1)C2=O	inactive: 45.9%	–
CSc1nnc2c3ccccc3n(CCc3ccccc3)c2n1	–	active: 7.31 µM
CC1C(O)CC2C(C(=O)O)=CO[C@@H](O[C@H]3OC(CO)C(O)C(O)C3O)C21 (some centres undefined)	inactive: -12.3%	–
CC(C)CNC(=S)N1CCC(c2nc(-c3ccc(F)cc3)no2)CC1	–	active: 20.6 µM
CC(=O)C[C@H](O)CC(=O)[C@H]1OC(=O)CCCCCCc2ccccc21	inactive: -1.41%	–
COC(=O)C1=C[C@@H](C(=O)OC)[C@@H]2C3=C(C(=O)[C@@]2(C)NC(=O)c2ccccc2)[C@H](c2ccccc2)n2c(=O)n(-c4ccccc4)c(=O)n2[C@@H]3C1	inactive: 66.1%	–
CN(C)CCNC(=O)Cn1c(=O)c2cccn2c2ccc(F)cc21	inactive: -29.7%	–
Cc1ccc(C)c(C(=O)CCC(=O)N2CCN(c3ncccn3)CC2)c1	inactive: 12.9%	–
COc1ccc2ccc(=O)oc2c1	inactive: -5%	–
O=C(NCc1ccccc1)C(=O)Nc1nc(C23CC4CC(CC(C4)C2)C3)cs1	–	active: 23.1 µM
C(=Cc1nc2ccccc2o1)c1ccc2c(c1)OCO2	inactive: -12.2%	–
CCN(Cc1ccccc1)CC(O)COc1ccccc1 (centres undefined)	inactive: 35.8%	–
CC(C)C[C@@H](CO)N1CCN(Cc2cccnc2)CCC1=O	inactive: 0.925%	–
COC(=O)CC1COc2ccccc2N1S(=O)(=O)c1ccc(OC)cc1 (centres undefined)	–	active: 3.66 µM
COc1ccc(Cn2ccnc2CO)cc1[N+](=O)[O-]	inactive: 33.4%	–
C[C@@H]1CN([C@@H](C)CO)C(=O)CCCn2nncc2CO[C@H]1CN(C)S(=O)(=O)c1ccc(Oc2ccccc2)cc1	inactive: -18.7%	–
CCOC(=O)CNC(=O)c1cccnc1	inactive: 1.87%	–
Cc1ccccc1-c1noc(C(C)NC(=O)c2ccco2)n1 (centres undefined)	inactive: -22.3%	–
Cc1cccc(Oc2nccc(C(F)(F)F)c2C(=O)Nc2ccc(F)cc2F)c1	inactive: 13.1%	–

SMILES	activity change, negative = growth inhibition	Potency
CCN(CC)C(=O)CSc1nc2c(sc(=S)n2-c2ccccc2)c(=O)n1Cc1ccco1	–	active: 23.1 µM
COc1ccc(-c2cc(=O)c3ccc(O)cc3o2)cc1	inactive: 2.09%	–
N[C@H](Cc1ccc(Cl)cc1)C(=O)O	inactive: 3.3%	–
O=C1C2CCCCC2C(=O)N1c1nccs1 (centres undefined)	inactive: 36.6%	–
CC(=O)c1ccc(S(=O)(=O)N2CCN(CC#N)CC2)cc1	inactive: -2%	–
O=C(C1=C[C@@H](C2CCCCC2)C[C@@H](OCc2ccc(CO)cc2)O1)N1CCOCC1	inactive: -19.8%	–
Cc1cc(C)nc(-n2nc(C)c3c2N(Cc2ccccc2)C(=O)CC3c2ccc(Cl)cc2)n1 (centres undefined)	–	active: 16.4 µM
C[C@@H]1CN([C@@H](C)CO)C(=O)CCCn2nncc2CO[C@H]1CN(C)S(=O)(=O)c1ccccc1	inactive: -5.54%	–
COc1ccc(NC(=O)CN(C)S(=O)(=O)c2ccc3c(c2)CCCN3C(C)=O)cc1	inactive: -2.24%	–
CC[C@@H]1C/C=C\Cc2ccccc2[C@@H](C(=O)C[C@@H](O)CC(C)=O)OC1=O	inactive: 8.43%	–
CSCCC(C(=O)N1C[C@]2(C)C[C@H]1CC(C)(C)C2)N1C(=O)c2ccccc2C1=O (some centres undefined)	inactive: -25%	–
Cc1ccnc(-n2sc3ccccc3c2=O)n1	–	active: 7.31 µM
CCn1cc2nc(SCc3cccc(Cl)c3)n(Cc3ccc(C)cc3)c(=O)c2n1	–	active: 20.6 µM
COc1cccc(N2CCN(C(=O)CCS(=O)(=O)c3ccc4c(c3)oc(=O)n4C)CC2)c1	inactive: -19.3%	–
CCC(C)n1ncn(-c2ccc(N3CCN(c4ccc(OC[C@H]5CO[C@](Cn6cncn6)(c6ccc(Cl)cc6Cl)O5)cc4)CC3)cc2)c1=O (some centres undefined)	inactive: -13.8%	–
CCOc1ccc(CNC(=O)CCCc2cn(C)c3ccccc23)cc1OC	inactive: -22.2%	–
CN1CCN(C(=O)C2=C[C@H](C3CCCCC3)C[C@H](OCc3ccc(CO)cc3)O2)CC1	inactive: -29.6%	–
COc1ccc(Nc2oc(/C=C/c3cccc(OC)c3)nc2C#N)cc1	–	active: 18.4 µM
C[C@@H]1CN([C@H](C)CO)S(=O)(=O)c2ccc(Br)cc2O[C@H]1CN(C)C(=O)Nc1ccc(F)cc1	inactive: -27.6%	–
N#CC(C#N)=C(N)/C(C#N)=C/c1ccc2[nH]ccc2c1	inactive: -8.76%	–
COc1cc(OC)cc(-c2noc(-c3csc([C@H]4C[C@H](O)[C@@H](CO)O4)n3)n2)c1	inactive: -27.4%	–
O=C(Cn1c(O)c(/C=C2\C=Nc3ccc(Br)cc32)sc1=O)N1CCCC1	–	active: 20.6 µM
CNCCC(Oc1ccccc1OC)c1ccccc1 (centres undefined)	inactive: -2.91%	–
COc1cccc(CC2(CO)CCCN(Cc3ccc(OC)c(C)c3OC)C2)c1 (centres undefined)	–	active: 18.4 µM
